These results are taken from PubChem BioAssay (NCI).

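Compound exposure: 48 hours, 5 concentrations, 96-well plates. GI50 marks 50% less growth. TGI marks complete inhibition of growth.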

This assay deals with NCI-H322M lung. The assay can be described thus: growth of human tumour cells (NCI), 48 h.
Consider `Cc1ccc(-c2nc(Nc3ccccc3C(=O)O)c3ccccc3n2)cc1`, for which the GI50 was 13.6 µM and the TGI was over 100 µM.
With `C=C1CC[C@@H]2[C@]3(C)COC(c4cn[nH]c4-c4cccc(Br)c4)O[C@@H]3CC[C@@]2(C)[C@@H]1C/C=C1/C(=O)OCC1O` (stereo partly specified), the GI50 is 5.09 µM and the TGI stood at 18 µM.
`N#CC1=C(c2ccco2)Nc2c(c(-c3ccccc3)nn2-c2ccccc2)C12C(=O)Nc1ccc(Br)cc12` (stereo unspecified): the GI50 was 43.3 µM and the TGI is over 100 µM.
